# Experimental data as given in PubChem BioAssay AID1345083 (National Center for Advancing Translational Sciences (NCATS), 2018).
# Values joined by “and” are separate entries in the source; they are usually repeats but may differ in a detail not shown here. Equal values may be shown once. The campaign covered roughly 94,000 compounds. About 6,200 (6.6%) were called active. The shares of active, inactive and inconclusive entries below differ from those in the screen. The call rests on the fitted dose curve; in most records, active means well fitted inhibition curve with a large enough effect; inconclusive means small, poorly fitted or top-dose-only effect; inactive means flat fitted curve, though single readings scatter. A potency beside an inconclusive call is a rough fit, not a confirmed value.
# Assay: Cytotoxic Profiling in HEK 293 Cell Line of Diverse Libraries Using Quantitative High-Throughput Screening; further: nearly all actives have a fitted effect of over 60% in size
# Details: HEK 293 viability, ATP luminescence (CellTiter-Glo), 48-72 h; series mostly up to 115 µM
# Procedure, shortened: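 Cytotoxicity was scored by loss of ATP-coupled luminescence (CellTiter-Glo) in HEK 293 cells. Compound treatment ran 48 or 72 hr at 37 degree Celsius, 5% CO2, 95% humidity.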
# Potency means the concentration at half of the fitted maximal effect; tags describe the fitted curve by direction and shape.
row,SMILES,Potency
1,Cc1ccc(S(=O)(=O)N2CCN(C3CCN(Cc4ccccn4)C3=O)CC2)c(C)c1 (stereo unspecified),inactive
2,Cc1noc([C@H]2CCN(C(=O)c3ccnn3C)C[C@H]2NC(=O)C2CC2)n1,inactive
3,COC(=O)[C@@H]1Cc2c([nH]c3ccccc23)[C@H]2C[C@H](NC[C@H]3CCCO3)C[C@@H](c3ccccc3F)N21,"inconclusive: 50.1 µM [inhibitor, partial curve, poor fit]"
4,CCOC1CCOC2(CCN(C(=O)c3cccs3)CC2)C1 (stereo unspecified),inactive
5,CCc1noc([C@@H]2CC(F)(F)CN2C(=O)CCc2c(C)noc2C)n1,"inconclusive: 28.2 µM [inhibitor, single point]"
6,O=C(CC1CCN(S(=O)(=O)c2cccnc2)C1)NCc1ccccc1 (stereo unspecified),"inconclusive: 89.1 µM [inhibitor, single point]"
7,COc1ccc(C(=O)NC2CCCN(Cc3ccc(-c4cccc(OC)c4)cc3)C2)cc1 (stereo unspecified),active: 35.5 µM
8,CCOc1ccccc1NC(=O)C1CCN(c2cnc3nccnc3c2)CC1,inactive
9,Cn1c(CCC(=O)N2CC[C@@H](O)C2)nc2cc(S(=O)(=O)N3CCCC3)ccc21,inactive
10,Cn1nc(C2CCN(S(=O)(=O)c3ccc4c(c3)CCCC4)CC2)n(C2CCCC2)c1=O,"inconclusive: 20 µM [inhibitor, partial curve, poor fit]"
11,COCCNc1nc2c([S+](=O)([O-])c3cccnc3)nnn2c2ccccc12,inactive
12,CCC1=C(C(=O)OC)C(c2ccccc2)N2C(CC(=O)N(C)Cc3ccccc3)=CSC2=N1 (stereo unspecified),"inconclusive: 39.8 µM [inhibitor, partial curve, poor fit]"
13,Cc1oc(C(O)c2ccccc2)nc1C(=O)Nc1ccc2[nH]ccc2c1 (stereo unspecified),active: 100 µM
14,COc1ccc(-c2cccc(C(=O)N3CCN([S+](=O)([O-])c4cccs4)CC3)c2)nn1,"inconclusive: 89.1 µM [inhibitor, single point]"
15,CC(C)C[C@@H](NC(=O)C1=C[C@@H](NC(=O)Nc2cccc(F)c2)[C@@H](O)[C@H](O)C1)C(N)=O,inactive
16,COc1ccc(CNC(=O)N2CCC(Cc3nc(-c4ccncc4)n[nH]3)C2)cc1 (stereo unspecified),"inconclusive: 89.1 µM [inhibitor, single point]"
17,CCN1c2cc(C(=O)Nc3ccc(OC)cc3C)ccc2C(=O)N2CCCCCC21 (stereo unspecified),"inconclusive: 44.7 µM [inhibitor, partial curve, poor fit]"
18,O=C(Cn1ccn2nc(-c3ccccc3)c(CO)c2c1=O)NCc1ccc2c(c1)OCO2,"inconclusive: 89.1 µM [inhibitor, single point]"
19,O[C@H]1CN[C@H](c2nc(-c3ccc(OC(F)(F)F)cc3)no2)C1,"inconclusive: 56.2 µM [inhibitor, full curve, poor fit]"
20,CNC(=O)C1CCCCN1Cc1ccc(-c2ccccc2OC)cc1 (stereo unspecified),"inconclusive: 44.7 µM [inhibitor, partial curve, poor fit] and inconclusive: 50.1 µM [inhibitor, partial curve, poor fit]"
21,COc1ccc(-c2ccc3ncc(Nc4cccc(F)c4)n3n2)cc1OC,active: 63.1 µM
22,Cc1nn(-c2ccccc2)c2c1C(C)N(CC1CN(C(=O)Nc3ccccc3)C1)C2=O (stereo unspecified),inactive

row,SMILES,Potency
1,O=C(NCCc1ccncc1)C1CN(C(=O)CCC2CCCC2)CC12CCOCC2 (stereo unspecified),inactive
2,O=C1Nc2ccccc2C12CCN(CC1CCCCC1)C2 (stereo unspecified),"inconclusive: 112 µM [inhibitor, partial curve, poor fit]"
3,CNC(=O)c1cc(C)nc2onc(C3CCCN3C(=O)Nc3ccccc3)c12 (stereo unspecified),inactive
4,CC[S+](=O)([O-])N1CCC2(CC1)[C@H](C(=O)Nc1ccccc1)[C@@H](OC(N)=O)C(=O)N2C,"inconclusive: 89.1 µM [inhibitor, partial curve, poor fit]"
5,CCOC(=O)CNC(=O)NCC1CCC(=O)N(Cc2ccccc2)CC1 (stereo unspecified),inactive
6,C[S+](=O)([O-])N1Cc2ccccc2CC2(CCCCN2CC2CCOCC2)C1 (stereo unspecified),inactive
7,CCOc1cc(-c2noc(-c3nnn4c3COC(c3ccc(F)cc3)C4)n2)ccc1OC (stereo unspecified),inactive
8,COc1ccccc1CNC(=O)CCC1CCCN(S(=O)(=O)c2ccccc2F)C1 (stereo unspecified),"inconclusive: 79.4 µM [inhibitor, partial curve, poor fit]"
9,COC(=O)c1ccc(NC(=O)Cn2c(C)cc3nc4n(c(=O)c32)CCCCC4)cc1,"inconclusive: 8.91 µM [inhibitor, partial curve, poor fit]"
10,COc1ccc(-c2ccc3c(c2)C(=O)N2C[C@@H](NS(=O)(=O)c4ccc(F)cc4)C[C@H]2C(=O)N3)c(OC)c1,active: 28.2 µM
11,COc1cccc(Nc2cc3[nH]ccc3c(C(=O)NCc3c(C)cc(C)[nH]c3=O)n2)c1,active: 70.8 µM
12,Cc1nn(-c2ccccc2)c2c1C(C)N(C1CCN([S+](C)(=O)[O-])CC1)C2=O (stereo unspecified),inactive
13,O=C(NC1CCN(c2cc(-c3cccs3)[nH]n2)C1)c1ccc(F)cc1F (stereo unspecified),"inconclusive: 70.8 µM [inhibitor, partial curve, poor fit]"
14,CC[C@H]1CN(C(=O)C(C)(C)C)CC[C@H]1CC(=O)NCc1ccc(F)cc1,inactive
15,O=C(C1CCCC1)N1CCC(c2nc(-c3ccc4nc[nH]c4c3)no2)CC1,"inconclusive: 79.4 µM [inhibitor, partial curve, poor fit]"
16,Cc1ccc(C(=O)N2CCCC(C(=O)N3CCC(N4CCCC4=O)CC3)C2)cc1 (stereo unspecified),inactive
17,CC#CCn1cc2c3c(cccc31)[C@H](CC(C)C)N[C@H](C(=O)NCc1ccco1)C2,"inconclusive: 70.8 µM [inhibitor, partial curve, poor fit]"
18,O=C(Cc1ccccc1F)NCCC1CCN(C(=O)Nc2cc(F)cc(F)c2)CC1,inactive
19,Cn1ncc2c(C(=O)NCc3cccc(F)c3)cc(-c3ccccc3)nc21,"inconclusive: 89.1 µM [inhibitor, single point]"
20,FC(F)(F)CN1C2CCC1CN(c1nccc(Nc3ccccc3Cl)n1)C2,"inconclusive: 50.1 µM [inhibitor, partial curve, poor fit]"
21,O=C1[C@@H]2C[C@@H](CN2Cc2ccccn2)Oc2ccccc2N1Cc1ccccc1,"inconclusive: 89.1 µM [inhibitor, partial curve, poor fit]"
22,O=C(Cc1ccsc1)N1CCC2(CC1)N=C(c1cccc(Br)c1)NO2,"inconclusive: 50.1 µM [inhibitor, partial curve, poor fit]"

row,SMILES,Potency
1,COc1ccccc1-c1cc(C(=O)Nc2ccc3c(c2)C(=O)N2CCC[C@H]2C(=O)N3)[nH]n1,"inconclusive: 25.1 µM [inhibitor, partial curve]"
2,Cc1ccc(C2Cn3nnc(C(=O)N4CCN(C(=O)c5ccc(C(C)(C)C)cc5)CC4)c3CO2)cc1 (stereo unspecified),"inconclusive: 3.16 µM [inhibitor, full curve, poor fit]"
3,COc1ccc(Cc2noc(-c3ccc(N(C)Cc4nonc4C)nc3)n2)cc1,"inconclusive: 35.5 µM [inhibitor, partial curve, poor fit]"
4,Cc1noc(C)c1-c1cc2cc(C(C)C)oc2c(Nc2ccn(C)n2)n1,active: 63.1 µM
5,CCN1c2cc(C(=O)NCc3ccccc3C)ccc2C(=O)N2CCCCCC21 (stereo unspecified),"inconclusive: 44.7 µM [inhibitor, partial curve, poor fit]"
6,CC(C)(C)NC(=O)N1CCCC(c2nc(CCOc3ccc(F)cc3)no2)C1 (stereo unspecified),"inconclusive: 50.1 µM [inhibitor, partial curve, poor fit]"
7,O=C(Cc1ccc(F)cc1)N1CC(c2noc(C3CCCN3CC3CC3)n2)C1 (stereo unspecified),inactive
8,O=C(c1ccccc1)N1CCc2nc(-c3ccc(Cl)cc3)nc(-c3ccccc3)c2C1,active: 22.4 µM
9,O=[S+]([O-])(c1cccs1)N1CCN(c2nccc(Nc3ccccc3F)n2)CC1,active: 35.5 µM
10,Cc1ccc(OCC(=O)N2CCCCCC2c2nnc(-c3ccccc3)o2)cc1 (stereo unspecified),"inconclusive: 50.1 µM [inhibitor, partial curve, poor fit]"
11,O=C(c1cccc(Cl)c1)N1CCCC(C(=O)N2CCCC(c3nc4ncccc4[nH]3)C2)C1 (stereo unspecified),inactive
12,COCCNc1ncc(-c2ccc(SC)cc2)c2c1OCC2,"inconclusive: 70.8 µM [inhibitor, partial curve]"
13,O=C(C1CCC1)N1CCC(N2CC3CC(C2)[C@H]2CCCC(=O)N2C3)CC1 (stereo partly specified),inactive
14,CCCS(=O)(=O)N1CCC2(CC1)C(=O)N(c1cccc(F)c1)C2c1ccccc1 (stereo unspecified),active: 25.1 µM
15,CCc1ccc(NC(=O)C2CC(=O)N(c3n[nH]c4cccc(F)c34)C2)cc1 (stereo unspecified),inactive
16,O=C(C1CCCN1C(=O)Nc1ccc(Cl)cc1)N1CCC(N2CCOCC2=O)CC1 (stereo unspecified),inactive
17,O=C1Nc2ccc(-c3cccc(C(F)(F)F)c3)cc2C(=O)N2CCN(C(=O)C3CCCC3)C[C@@H]12,active: 39.8 µM
18,CC(C)NC(=O)c1ccc2nc(-c3cccnc3)oc2c1,inactive
19,Cc1ccc(-c2nnc(C3CN(C(=O)c4ccccc4C)CC34CCOCC4)o2)cc1 (stereo unspecified),"inconclusive: 44.7 µM [inhibitor, partial curve]"
20,O=C(CCC[C@H]1NC[C@@H]2C[C@H]1CN(Cc1ccccc1)C2)N1CCN(Cc2ccccc2F)CC1,"inconclusive: 50.1 µM [inhibitor, partial curve, poor fit]"
21,CN(Cc1ccccc1)Cc1cc(CC2(NCc3ccccc3F)COC2)no1,"inconclusive: 100 µM [inhibitor, partial curve]"
22,CC(=O)c1cc(C(=O)N2CCCC(CCc3ccccc3C)C2)[nH]n1 (stereo unspecified),"inconclusive: 22.4 µM [inhibitor, full curve, poor fit]"
